Reference: PubChem BioAssay AID1240 (Sanford-Burnham Center for Chemical Genomics, 2008)
Among all 50,000 compounds or so, about 800 (1.6%) showed an effect of 50% or more. This is one part of the list.

molecular target: Bcl-2-like protein 10 (Homo sapiens) (UniProt Q9HD36); assay: Phenotype converters, Bcl-B/TR3 peptide binding displacement, primary biochemical FP (AID 1240); conditions: GST-Bcl-B / FITC-TR3 peptide fluorescence polarization; stronger effect = higher value; compound at 3.75 mg/L;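 note: 0% = Bcl-B with tracer peptide and DMSO and 100% = tracer peptide lacking Bcl-B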
UniProt Q9HD36, sequence (Q9HD36 whole entry, looked up): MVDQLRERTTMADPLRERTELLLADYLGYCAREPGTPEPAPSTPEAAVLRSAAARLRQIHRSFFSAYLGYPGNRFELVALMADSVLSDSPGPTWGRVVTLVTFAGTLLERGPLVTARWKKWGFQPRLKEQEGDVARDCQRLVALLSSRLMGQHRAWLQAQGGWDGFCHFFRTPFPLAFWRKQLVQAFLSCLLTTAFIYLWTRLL

First: O=C(NCCOC(=O)c1ccc(S(=O)(=O)N2CCOCC2)cc1)c1cccnc1
Second: Cc1ccc(C(=O)Nc2ccc(N3CCOCC3)c(Cl)c2)cc1C
The displacement of the first is higher: 10.3% for the first, 7.1% for the second.

Going from `CCc1ccccc1NC(=O)CN(c1ccc(OC)cc1OC)S(C)(=O)=O` to `CCOC(=O)c1ccc(NC(=O)CN(c2cc(OC)ccc2OC)S(C)(=O)=O)cc1`, the displacement rises from 2% to 5.5%.

Compared with `N#Cc1cc2c(nc1SCc1ccc(Br)cc1)CCCC2`, `O=C1CCCc2c1[nH]c1ccc(Br)cc21` is higher in displacement: -4.4% for the first, 3.6% for the second.

Compared with `COc1ccccc1Cc1noc(-c2ccc(F)cc2)n1`, `COC(=O)C1=C(C)N(c2ccc(F)cc2)C(=O)/C1=C\c1ccccc1O` is higher in displacement: -7.7% for the first, 9.4% for the second.

Going from `CCOc1ccc(N2Cc3ccc(C(=O)NN)cc3C2)cc1` to `CCOc1ccc(N2C(=O)CC(NCc3ccc(Cl)cc3Cl)C2=O)cc1` (configuration not stated), the displacement rises from -27.8% to -10.6%.

Compared with `Cc1ccc(C(=O)Nc2cccc(O)c2)o1`, `CCCOc1cccc(NC(=O)c2ccc(C)o2)c1` is higher in displacement: -10.7% for the first, 0.8% for the second.

Compared with `CC12CN3CC(C)(CN(C1)C3(C)c1ccccc1)C2=O` (configuration not stated), `CC(C)CCNC1=CC(=O)CC(c2ccccc2)C1` (configuration not stated) is higher in displacement: -9.1% for the first, 11.8% for the second.

First: CCC1C(=O)N(c2nc(-c3ccc(I)cc3)cs2)N=C1C (configuration not stated)
Second: Cc1cc(=O)n2/c(=C\c3ccc(Br)cc3)c(=O)[nH]c2n1
The displacement of the first is lower: -16.9% for the first, -10.2% for the second.

Compared with `COc1ccc(/C=N/n2c(C)nnc2C)c(OC)c1`, `COc1ccc2c(C)cc(=O)oc2c1I` is lower in displacement: -6% for the first, -14.5% for the second.

Compared with `CC(C)(C)N=C1c2nn(Cc3ccccc3)nc2C(=NC(C)(C)C)c2nn(Cc3ccccc3)nc21`, `CCOc1cc(/C=N/NC(=O)CSc2nnc(-c3ccccc3)n2-c2ccccc2)ccc1O` is lower in displacement: 1.4% for the first, -1.7% for the second.

First: Cc1cc(C)nc(N/N=C/c2ccc(N3CCOCC3)cc2)n1
Second: Cc1ccc(N2C(=O)/C(=C/N3CCOCC3)c3ccccc3C2=O)cc1
The displacement of the first is lower: -23.9% for the first, 3.2% for the second.

Going from `COc1ccc(-c2cc(C(=O)N3CCC(Cc4ccccc4)CC3)c3ccccc3n2)c(OC)c1` to `COc1ccc(S(=O)(=O)N(CC(=O)Nc2ccccc2OC)Cc2ccccc2)cc1`, the displacement rises from -62.7% to -3.9%.

Going from `COc1ccc(NC(=O)/C=C/c2cccc([N+](=O)[O-])c2)cc1` to `O=C(/C=C/c1ccccc1)Nc1cccc(Br)c1`, the displacement falls from -2.4% to -8.7%.

Going from `C=CCc1ccccc1OCCOc1ccc(/C=c2\sc3nc4ccccc4n3c2=O)cc1OCC` to `Cc1ccc(/C=C2/SC(=S)N(CCC(=O)N3c4ccccc4Sc4ccc(Cl)cc43)C2=O)cc1`, the displacement falls from 100% to 9.7%.

Compared with `O=c1oc(-c2ccccc2[N+](=O)[O-])nc2ccccc12`, `Nc1ccc(-c2cc(C(=O)O)c3ccccc3n2)cc1` is higher in displacement: 3.8% for the first, 21.8% for the second.

First: CN(C)c1ccc(C2Nc3ccccc3NC3=C2C(=O)CC(c2ccccc2)C3)cc1 (configuration not stated)
Second: CC1(C)CC(=O)C2=C(C1)c1c(ccc3ccccc13)NC2c1ccccc1F (configuration not stated)
The displacement of the first is higher: 2.9% for the first, -1.5% for the second.

Going from `C=CCN(CC=C)C(=O)c1cc(-c2ccc(C)s2)nc2ccccc12` to `C=CCSc1nc2ccccc2c(=O)[nH]1`, the displacement rises from -7.2% to 16.8%.

Going from `O=C(O)c1ccccc1NC1=C(Cl)C(=O)N(c2cccc(Cl)c2)C1=O` to `O=C1NN(c2cccc(Cl)c2)C(=O)/C1=C\c1ccccc1O`, the displacement falls from 18.5% to -6.5%.

Compared with `O=C(c1sc2cc(F)ccc2c1Cl)N1CCc2ccccc2C1`, `O=C(/C=C\c1ccccc1)Nc1ccc2c3c(cccc13)CC2` is higher in displacement: 1% for the first, 12.4% for the second.

First: Oc1cccc(C=Nc2cccc(C(F)(F)F)c2)c1
Second: O=C(/C=C/c1ccc(Cl)cc1)Nc1ccccc1C(F)(F)F
The displacement of the first is lower: 0.7% for the first, 8.8% for the second.

Compared with `CCC(Oc1ccccc1)C(=O)Nc1c(F)c(F)c(F)c(F)c1F` (configuration not stated), `Cc1nc(SCC(=O)O)[nH]c(=O)c1Oc1ccccc1` is lower in displacement: -2.2% for the first, -5% for the second.

First: COC(=O)C1=C(C)NC(C)=C(C(=O)OC)C1c1cn(-c2ccccc2)nc1-c1ccc(OC)c(Cl)c1
Second: COc1ccc(C2=Nc3ccc(Br)cc3C(c3ccccc3)N2CC(=O)NN)cc1 (configuration not stated)
The displacement of the first is lower: 10.8% for the first, 14% for the second.

Going from `Cc1ccc(S(=O)(=O)NC(C)(C)C(=O)O)cc1` to `C/C(=N\NS(=O)(=O)c1ccc(C)cc1)c1cc2ccccc2oc1=O`, the displacement falls from 7.8% to 6.4%.

Going from `CCCC1(O)CC(c2cc(OC)ccc2OC)NC(c2cc(OC)ccc2OC)C1C` (configuration not stated) to `COc1ccc(OC)c(N(CC(=O)NCCc2ccc(OC)c(OC)c2)S(=O)(=O)c2ccc(OC)c(OC)c2)c1`, the displacement rises from 9.7% to 10%.

Going from `O=C1C(Nc2cccc(Br)c2)=C(N2CCCCC2)C(=O)c2ccccc21` to `O=C(CNc1cccc(Br)c1)c1ccc([N+](=O)[O-])cc1`, the displacement falls from 16.5% to 2.1%.

Compared with `COc1sc(SC)cc1/C=N/NC(=O)C(NC(=O)c1ccccc1)c1n[nH]c(=O)c2ccccc12` (configuration not stated), `C/C(=N\N=C1\NC(=O)C(CC(=O)Nc2ccccc2C(F)(F)F)S1)c1ccccc1` (configuration not stated) is higher in displacement: -7.7% for the first, 9.6% for the second.

Going from `COc1cc(C(=O)N2CCN(c3cccc(Cl)c3)CC2)c([N+](=O)[O-])cc1OC` to `O=C(c1ccc(Cl)c(Cl)c1)N1CCN(c2ccc([N+](=O)[O-])cc2Cl)CC1`, the displacement falls from 15.2% to -12.8%.

First: CC(=O)Nc1ccc(Sc2ccccc2[N+](=O)[O-])cc1C
Second: Cc1cc(Cl)ccc1OCC(=O)Nc1ccccc1[N+](=O)[O-]
The displacement of the first is lower: -18.2% for the first, -14% for the second.

First: O=[N+]([O-])c1ccc(N2CCOCC2)cc1NCCCN1CCOCC1
Second: O=C(c1ccc([N+](=O)[O-])cc1)N1CCN(c2nc(-c3ccccc3)c3cc(Cl)ccc3n2)CC1
The displacement of the first is lower: -14.2% for the first, 17.5% for the second.

Going from `CC(=O)CC(=O)NC(C)c1ccccc1` (configuration not stated) to `CCC(C)NC(=O)CN(c1ccccc1)S(=O)(=O)c1ccccc1[N+](=O)[O-]` (configuration not stated), the displacement falls from 10.1% to -8%.

Going from `Cc1cc(=O)[nH]c(SCCc2ccccc2)n1` to `COc1ccc(CCNC(=O)COc2ccc(C)cc2Br)cc1`, the displacement falls from 11.6% to -9.2%.

Compared with `COc1ccccc1NC(=O)c1ccccc1N(Cc1ccccc1)S(=O)(=O)c1ccccc1`, `COc1ccc(N/C(=N/S(=O)(=O)c2ccccc2)c2ccccc2)cc1` is higher in displacement: 0.6% for the first, 10.6% for the second.

Going from `O=C(NC(NC(=S)Nc1ccccc1I)C(Cl)(Cl)Cl)c1ccccc1F` (configuration not stated) to `Cc1cccc(NC(=O)C(=O)NNC(=O)c2ccccc2C)c1`, the displacement falls from 14.2% to -11.5%.

First: O=C(COC(=O)c1ccccc1C(F)(F)F)c1ccc(Cl)cc1
Second: CCOC(=O)c1c(NC(=O)c2ccc(Cl)cc2)sc(C(=O)Nc2ccccc2C(F)(F)F)c1C
The displacement of the first is lower: -11.5% for the first, 18.7% for the second.

First: CCOC(=O)Cc1nnc2c(NC(C)C)nc3nonc3n12
Second: CCOC(=O)c1c(NC(=O)COc2ccccc2)sc2c1CCN(C(=O)OCC)C2
The displacement of the first is higher: 2.3% for the first, -23% for the second.

Compared with `CCCSC1=C(C#N)C(c2ccc(F)cc2)CC(=O)N1` (configuration not stated), `O=C1CC(c2ccc(F)cc2)c2cc(Br)c3ccccc3c2N1` (configuration not stated) is lower in displacement: 3.2% for the first, -9% for the second.

Going from `CN1C(=O)C(=Cc2c(Cl)cccc2Cl)C(=O)N(C)C1=O` to `CN1C(=O)NC(=O)/C(=C/c2ccc(-c3ccc(Cl)c(Cl)c3)o2)C1=O`, the displacement falls from 12.4% to -7.2%.

Compared with `Cc1cc(C=NNC(=O)CC#N)c(C)n1-c1ccc(Cl)c(Cl)c1`, `Cc1ccc([N+](=O)[O-])cc1NC(=O)COc1cccc(C)c1C` is higher in displacement: -16.6% for the first, 1.9% for the second.

First: O=C1CSC(c2ccc3c(c2)OCO3)N1 (configuration not stated)
Second: O=C(CN1C(=O)/C(=C/c2cccc(Br)c2)SC1=S)Nc1ccc2c(c1)OCO2
The displacement of the first is lower: -8.5% for the first, 11.4% for the second.

Going from `CC(=O)NS(=O)(=O)c1ccc(N/C(N)=N\c2nc(C)cc(C)n2)cc1` to `COc1cc(OC)cc(C(=O)Nc2cccc(S(N)(=O)=O)c2)c1`, the displacement falls from 5.6% to 2%.

Compared with `Cc1ccsc1/C=N/OC(=O)c1nn(C)cc1Br`, `Cc1ccc(OCC(=O)O/N=C(\N)c2ccccn2)c(C)c1` is higher in displacement: -8.1% for the first, -5.1% for the second.

Compared with `CCOc1ccc(N(CC(=O)NCc2ccc(OC)cc2)S(=O)(=O)c2ccc(Br)cc2)cc1`, `CCOc1ccc(Cc2c(C)nc3c(C)cccc3c2Cl)cc1` is higher in displacement: -10% for the first, -5.7% for the second.

First: Cc1ccc(C(=O)c2ccc(N3CCN(C(=O)c4cccc(F)c4)CC3)c(F)c2)cc1C
Second: Cc1ccc(C(=O)N(C(=O)c2ccc(C)c(C)c2)c2ccccn2)cc1C
The displacement of the first is lower: 1.6% for the first, 7.1% for the second.

Going from `CN(C)c1ccc(/C=C2/SC(N=Nc3c(O)[nH]c4ccccc34)=NC2=O)cc1` to `COc1ccc(/C=C2\SC(=S)N(c3cccc(Br)c3)C2=O)cc1`, the displacement falls from 7.9% to 3.9%.

Going from `CCOc1ccccc1NC(=O)CN(c1ccccc1Cl)S(C)(=O)=O` to `COC(=O)CN(c1ccc(C)c(Cl)c1)S(C)(=O)=O`, the displacement rises from -5.8% to 5.5%.

Going from `COc1cc(C=C2C(=O)NC(=O)NC2=O)cc(Br)c1OCc1ccc([N+](=O)[O-])cc1` to `C=CCc1cc(/C=C2/C(=O)NC(=O)N(c3ccc(C)cc3)C2=O)cc(OC)c1O`, the displacement falls from 15.4% to -11.8%.

Going from `C=C1CSc2nc(=O)c3c(C)c(C)sc3n21` to `COc1ccc(-n2c(=O)c3c4c(sc3n3c(SC)nnc23)COC(C)(C)C4)cc1`, the displacement rises from 1.7% to 6.2%.

First: COc1ccc2c(c1)-c1c(ssc1=Nc1ccc(S(N)(=O)=O)cc1)C(C)(C)N2
Second: COc1cccc(OCCn2cc(C=C3C(=O)NC(=S)NC3=O)c3ccccc32)c1
The displacement of the first is lower: -14.3% for the first, 36.6% for the second.

Going from `COC(=O)CC(C(=O)OC)C(C(=O)OC)C(=O)OC` (configuration not stated) to `CCOC(=O)c1c(NC(=O)c2cccs2)sc(C(=O)Nc2ccccc2C(F)(F)F)c1C`, the displacement falls from 11.3% to -10.1%.

First: O=C1/C(=C/c2c(Cl)cccc2Cl)SC(=S)N1CC1CCCO1 (configuration not stated)
Second: CC(C)OC(=O)c1c(-c2ccccc2)csc1NC(=O)C1C2CCC(C2)C1C(=O)O (configuration not stated)
The displacement of the first is higher: -3% for the first, -3.8% for the second.

First: O=C(CCC(=O)N/N=C/c1ccc(O)cc1)N/N=C\c1ccc(O)cc1
Second: O=C(NCC(O)c1ccccc1)c1ccc(CSc2ccc(Cl)cc2)cc1 (configuration not stated)
The displacement of the first is higher: 0.2% for the first, -14.3% for the second.

First: O=C(c1cc2n(n1)C(C(F)(F)F)CC(c1cccs1)N2)N1CCN(C(c2ccccc2)c2ccccc2)CC1 (configuration not stated)
Second: O=C(Nc1ccccc1)Nc1nnc(CSCc2ccccc2F)s1
The displacement of the first is lower: 6.7% for the first, 7.8% for the second.

Going from `CC(C)(C)CC(C)(C)NC(=O)c1ccc2nccnc2c1` to `CCN(CC)c1ccc(NC(=O)c2cncc(Br)c2)cc1`, the displacement rises from 14.3% to 84.2%.

In the case of `C=CCOCC(O)CSCCCC` (configuration not stated), the displacement is reported as -4.5%.
